Residue numbers refer to the chain shown, from its start. This is one part of the list.
T1: RBFOX1 RRM (Homo sapiens, UniProt Q9NWB1 109-208)
T1 sequence: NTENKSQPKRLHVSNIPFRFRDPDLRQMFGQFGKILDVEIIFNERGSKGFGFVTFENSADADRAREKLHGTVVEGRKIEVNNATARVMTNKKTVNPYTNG

B1: AACGGGG (DNA:RNA)
RNA: GGGAGACCGGAAUUCAGAUUGUCCAACGGGGUUAAAUCCCGUCGUAGCCACCA
DNA 1: CAATCTGAATTCCGGTCTCCC
DNA 2: TGGTGGCTACGACGGGATT
B2: CCCUAUU (DNA:RNA)
RNA: B1 RNA with A25C, A26C, G28U, G29A, G30U, G31U
DNA 1: CAATCTGAATTCCGGTCTCCC
DNA 2: TGGTGGCTACGACGGGATT
B3: AGGAUGG (DNA:RNA)
RNA: B1 RNA with A26G, C27G, G28A, G29U
DNA 1: CAATCTGAATTCCGGTCTCCC
DNA 2: TGGTGGCTACGACGGGATT
B4: AACAUGA (DNA:RNA)
RNA: B1 RNA with G28A, G29U, G31A
DNA 1: CAATCTGAATTCCGGTCTCCC
DNA 2: TGGTGGCTACGACGGGATT
B5: GUCGGCG (DNA:RNA)
RNA: B1 RNA with A25G, A26U, G30C
DNA 1: CAATCTGAATTCCGGTCTCCC
DNA 2: TGGTGGCTACGACGGGATT
B6: GAGUCUG (DNA:RNA)
RNA: B1 RNA with A25G, C27G, G28U, G29C, G30U
DNA 1: CAATCTGAATTCCGGTCTCCC
DNA 2: TGGTGGCTACGACGGGATT
B7: UGCACUG (DNA:RNA)
RNA: B1 RNA with A25U, A26G, G28A, G29C, G30U
DNA 1: CAATCTGAATTCCGGTCTCCC
DNA 2: TGGTGGCTACGACGGGATT
B8: UUUUACU (DNA:RNA)
RNA: GGGAGACCGGAAUUCAGAUUGUCCUUUUACUUUAAAUCCCGUCGUAGCCACCA
DNA 1: CAATCTGAATTCCGGTCTCCC
DNA 2: TGGTGGCTACGACGGGATT
B9: UUAUUGA (DNA:RNA)
RNA: B8 RNA with U27A, A29U, C30G, U31A
DNA 1: CAATCTGAATTCCGGTCTCCC
DNA 2: TGGTGGCTACGACGGGATT
B10: CGGGGGU (DNA:RNA)
RNA: B1 RNA with A25C, A26G, C27G, G31U
DNA 1: CAATCTGAATTCCGGTCTCCC
DNA 2: TGGTGGCTACGACGGGATT
B11: CAACUCG (DNA:RNA)
RNA: B1 RNA with A25C, C27A, G28C, G29U, G30C
DNA 1: CAATCTGAATTCCGGTCTCCC
DNA 2: TGGTGGCTACGACGGGATT
B12: GCCCAAU (DNA:RNA)
RNA: B8 RNA with U25G, U26C, U27C, U28C, C30A
DNA 1: CAATCTGAATTCCGGTCTCCC
DNA 2: TGGTGGCTACGACGGGATT
B13: UCCAACC (DNA:RNA)
RNA: B8 RNA with U26C, U27C, U28A, U31C
DNA 1: CAATCTGAATTCCGGTCTCCC
DNA 2: TGGTGGCTACGACGGGATT
B14: CCGCCAC (DNA:RNA)
RNA: GGGAGACCGGAAUUCAGAUUGUCCCCGCCACUUAAAUCCCGUCGUAGCCACCA
DNA 1: CAATCTGAATTCCGGTCTCCC
DNA 2: TGGTGGCTACGACGGGATT
B15: GCCCUUA (DNA:RNA)
RNA: B14 RNA with C25G, G27C, C29U, A30U, C31A
DNA 1: CAATCTGAATTCCGGTCTCCC
DNA 2: TGGTGGCTACGACGGGATT
B16: CUAGGGC (DNA:RNA)
RNA: B1 RNA with A25C, A26U, C27A, G31C
DNA 1: CAATCTGAATTCCGGTCTCCC
DNA 2: TGGTGGCTACGACGGGATT
B17: UGGGUAU (DNA:RNA)
RNA: B14 RNA with C25U, C26G, C28G, C29U, C31U
DNA 1: CAATCTGAATTCCGGTCTCCC
DNA 2: TGGTGGCTACGACGGGATT
B18: UAUGGUG (DNA:RNA)
RNA: B1 RNA with A25U, C27U, G30U
DNA 1: CAATCTGAATTCCGGTCTCCC
DNA 2: TGGTGGCTACGACGGGATT
B19: CUUUGCC (DNA:RNA)
RNA: B8 RNA with U25C, A29G, U31C
DNA 1: CAATCTGAATTCCGGTCTCCC
DNA 2: TGGTGGCTACGACGGGATT
B20: UAGAGGG (DNA:RNA)
RNA: B1 RNA with A25U, C27G, G28A
DNA 1: CAATCTGAATTCCGGTCTCCC
DNA 2: TGGTGGCTACGACGGGATT

These binders were tested against T1, RBFOX1 RRM (assay: EMSA; HiTS-Eq, 1 nM pool, 10 min; buffer printed only for the single-RNA assays: 10 mM Tris pH 7.5, 150 mM NaCl, 3.4 mM EDTA, 0.001% NP-40, 30 C). Settings: tags: His6 N-terminal (pET28a); label: 5' 32P.
Summary of the method: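 Purified wild-type or mutant RbFox RRM at increasing concentrations was equilibrated with 1 nM of 5′-radiolabelled RNA carrying 7 randomized nucleotides for 10 min in 50 µL. Unbound RNA was separated by 8% native PAGE and sequenced. Relative association constants came from read-count changes of each RNA species compared with the control reaction, normalised to the cognate motif.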

Row | Binder | binding signal
1 | B1 | 0.00941 KA relative to UGCAUGU
2 | B2 | 0.00299 KA relative to UGCAUGU
3 | B3 | 0.0178 KA relative to UGCAUGU
4 | B4 | 0.00456 KA relative to UGCAUGU
5 | B5 | 0.0204 KA relative to UGCAUGU
6 | B6 | 0.0238 KA relative to UGCAUGU
7 | B7 | 0.0224 KA relative to UGCAUGU
8 | B8 | 0.00793 KA relative to UGCAUGU
9 | B9 | 0.0139 KA relative to UGCAUGU
10 | B10 | 0.0227 KA relative to UGCAUGU
11 | B11 | 0.00248 KA relative to UGCAUGU
12 | B12 | 0.00773 KA relative to UGCAUGU
13 | B13 | 0.00367 KA relative to UGCAUGU
14 | B14 | 0.00254 KA relative to UGCAUGU
15 | B15 | 0.00831 KA relative to UGCAUGU
16 | B16 | 0.00212 KA relative to UGCAUGU
17 | B17 | 0.0278 KA relative to UGCAUGU
18 | B18 | 0.0249 KA relative to UGCAUGU
19 | B19 | 0.0129 KA relative to UGCAUGU
20 | B20 | 0.00669 KA relative to UGCAUGU

From paper PMC9911399, “Two distinct binding modes provide the RNA-binding protein RbFox with extraordinary sequence specificity”
